Results taken from PubChem BioAssay AID588855 (National Center for Advancing Translational Sciences (NCATS), 2011).
Among all 410,000 compounds or so, about 5,000 (1.2%) were called active. The inconclusive results got no clear call from the source; some entries with a clear call stand among them for comparison. Calls come from the whole dose curve; as a rule, active = well fitted inhibition curve with a large enough effect; inconclusive = small, poorly fitted or top-dose-only effect; inactive = no such curve, though single readings can be large or run the other way. Potencies beside an inconclusive call are fits to weak or partial responses and may not hold up.

Test: qHTS for Inhibitors of TGF-b; note: nearly all actives have a fitted effect of over 65% in size
Conditions: HepG2 CAGA-GFP TGF-b/SMAD3 reporter, GFP fluorescence, 18 h, TGF-beta stimulated, 500 pg/mL final; series mostly up to 46.1 µM; activity, negative = inhibition: at the top concentration
Procedure, shortened: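 Smad-responsive CAGA-GFP expression was quantified in HEPG2 cells exposed to compounds and 500 pg/mL final TGF-beta for 18 h at 37 degrees C; unstimulated wells defined full inhibition.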
% is set by controls: 0 for no effect and ±100 for the full control effect; potency is the fitted concentration of half-maximal effect; tags give direction and shape of the fitted curve.

Structure (SMILES)	Potency	activity, negative = inhibition
CCCNC(=S)N1CCN(CC)CC1	inconclusive: 14.1 µM [inhibitor, single point]	–
COc1cccc(C(=O)Nc2ccc3nc(SCc4ccc(C)cc4)sc3c2)c1	inconclusive: 35.5 µM [inhibitor, single point]	–
CC(NC(=O)C1CCCCC1)C(=O)NC1=NCCS1 (centres undefined)	inconclusive: 6.31 µM [inhibitor, single point]	–
Cn1nc(-c2ccccc2)c(-c2ccccc2)c(C(=O)Nc2ccc(S(N)(=O)=O)cc2)c1=O	–	inactive: -0.749%
CN(CCC(=O)c1ccccc1)CCC(=O)c1ccccc1	–	inactive: 0%
CC(C)CN(C(=O)c1ccc(S(=O)(=O)N2CCCC2)cc1)C1CCS(=O)(=O)C1 (centres undefined)	–	inactive: 15.8%
CC(=O)N1CCCc2cc(S(=O)(=O)NCc3ccc(N(C)C)cc3)ccc21	inconclusive: 35.5 µM [inhibitor, partial curve, poor fit]	–
O=C(CSc1ccccn1)c1ccc2c(c1)OCO2	inconclusive: 35.5 µM [inhibitor, single point]	–
COc1ccc(C(=O)NC2CCN(S(=O)(=O)c3ccc(F)cc3)CC2)cc1	–	inactive: -21.3%
CN=c1scc(-c2cccs2)n1/N=C/c1ccccc1O	inconclusive: 2.82 µM [inhibitor, partial curve, poor fit]	–
CCOc1ccc(Nc2c(S(=O)(=O)c3ccc(C)cc3)cnc3ccc(OC)cc23)cc1	inconclusive: 25.1 µM [inhibitor, single point]	–
COc1cc2nc(NCc3ccccc3Cl)n3nc(-c4cccnc4)nc3c2cc1OC	–	inactive: -15.7%
COc1ccc(N(CC(=O)Nc2cccc(N(C)S(C)(=O)=O)c2)S(=O)(=O)c2ccc(F)cc2)cc1	inconclusive: 15.8 µM [inhibitor, single point]	–
CCc1ccc(OC2(C)CCN(Cc3ccccc3OC(F)F)C2)cc1 (centres undefined)	–	inactive: -15.1%
CC1CCC(C(C)C)C2=C1C(C#N)(C#N)C(C#N)(C#N)C(c1ccccc1)N2 (centres undefined)	inconclusive: 15.8 µM [inhibitor, single point]	–
Cc1ccc(C2(CCNS(=O)(=O)c3ccc(C)cc3)CCOC(C(C)C)C2)cc1 (centres undefined)	inconclusive: 25.1 µM [inhibitor, single point]	–
COc1cc(/C=N/N=C(/C(=O)c2ccccc2)c2ccccc2)cc(OC)c1O	inconclusive: 35.5 µM [inhibitor, single point]	–
CC(C)(C)OC(=O)NC(CO)c1cn([C@@H](Cc2cc3ccccc3[nH]2)C(=O)N2CCN(C(=O)OC(C)(C)C)CC2)nn1 (some centres undefined)	–	inactive: 36.8%
Nc1cc(Cl)ccc1C(=O)OCC(=O)NC(=O)NCc1ccccc1	inconclusive: 35.5 µM [inhibitor, single point]	–
O=C1c2ccccc2C(=O)N1CCCSc1nc2ccccc2o1	inconclusive: 1 µM [inhibitor, full curve, poor fit]	–
Cc1ccc2c(c1)N(C(=O)N1CCC(C(=O)NC3CCCCCC3)CC1)CCO2	inconclusive: 35.5 µM [inhibitor, single point]	–
CC1CCCCN1CC(=O)Nc1ccccc1Sc1ccccc1 (centres undefined)	inconclusive: 22.4 µM [inhibitor, single point]	–

Structure (SMILES)	Potency	activity, negative = inhibition
Cc1ccc(N=C2SC(C(=O)Nc3ccc(OC(F)(F)F)cc3)C(N)=C2C(=O)Nc2c(C)cc(C)cc2C)cc1 (centres undefined)	active: 7.08 µM	–
O=C(c1nc2ccccn2c1CN1CCCC(O)C1)N1CCN(C2CCCCC2)CC1 (centres undefined)	–	inactive: -5.37%
COc1ccc(C2=NN(C(=O)CSc3nccn3C)C(c3ccco3)C2)cc1 (centres undefined)	–	inactive: -11.7%
CCOc1cc([N+](=O)[O-])cc(/C=N/NC(=O)c2c(-c3ccccc3)noc2C)c1O	inconclusive: 12.6 µM [inhibitor, single point]	–
O=C(C[n+]1ccncc1Cl)c1ccc(F)cc1	inconclusive: 28.2 µM [inhibitor, single point]	–
O=C(c1ccccc1)c1ccc(NCCCn2ccnc2)c([N+](=O)[O-])c1	–	inactive: -3.36%
CCN(CC)S(=O)(=O)c1ccc(N2CCOCC2)c(NC(=O)c2cc3ccccc3oc2=O)c1	–	inactive: -25.9%
CCCOc1ccc(C(=O)Nc2ccc(NC(=O)c3cccc(Cl)c3)cc2)cc1	–	inactive: -3.74%
Cc1ccc(C)c(N2CCN(C(=O)c3cc(S(=O)(=O)N4CCCC4)c[nH]3)CC2)c1	inconclusive: 35.5 µM [inhibitor, single point]	–
COC(=O)c1ccccc1NC(=S)N(Cc1ccc2c(c1)OCO2)Cc1cc2ccc(OC)cc2[nH]c1=O	inconclusive: 15.8 µM [inhibitor, single point]	–
COc1ccc(N(CC(=O)N2CCN(c3ccccc3)CC2)S(=O)(=O)c2c(C)noc2C)cc1	–	inactive: 1.77%
O=C(NCCN1CCc2ccccc2C1)C1CCN(S(=O)(=O)N2CCCCC2)CC1	inconclusive: 22.4 µM [inhibitor, single point]	–
C=CC[C@@H](CC(=O)NCCO)C(=O)N[C@@H](COC(=O)[C@@H](CC=C)CC(=O)OC(C)(C)C)Cc1ccccc1	–	inactive: -10.9%
COc1ccc(C(=O)N2CC(=O)Nc3ccccc32)cc1S(=O)(=O)N1CCCC1	–	inactive: 3.37%
O=C(CSc1ccc2nnc(-c3ccccc3)n2n1)N1CCCCC1	inconclusive: 3.55 µM [inhibitor, single point]	–
C=C(C)COc1ccc(-c2n[nH]c(C)c2-c2ccc(OC)cc2)c(O)c1	inconclusive: 35.5 µM [inhibitor, single point]	–
Cc1ccc(S(=O)(=O)N(C)c2ccc3sc(C)nc3c2)cc1	–	inactive: -21.1%
Cc1ccc(CCNC(=O)C2CCN(S(=O)(=O)c3ccc4c(c3)NC(=O)C(C)S4)CC2)cc1 (centres undefined)	inconclusive: 28.2 µM [inhibitor, single point]	–
CCc1ccc(NC(=O)CSc2nc(=O)n(Cc3cccnc3)c3c2CCC3)cc1	inconclusive: 10 µM [inhibitor, partial curve]	–
CC(=O)c1cccc(NC(=S)NC(=O)c2ccccc2C)c1	–	inactive: -5.56%
O=S(=O)(NC1CCCCC1N1CCCCC1)c1ccc(Cl)cc1 (centres undefined)	inconclusive: 5.62 µM [inhibitor, single point]	–
Cc1cc2c(cc1C)CSC(c1ccc(O)cc1)SC2	inconclusive: 1.26 µM [inhibitor, partial curve, poor fit]	–
